Results published in the supplement of paper PMC10338343.
± gives the standard deviation. In all, about 6,600 sequences were measured (“pre-steady-state target cleavage rate”: median about 0.07, highest 2% from about 0.72 on). The list shows a part of the results, in another mix than the full data.

Test system: MIWI (PIWIL1) piRISC loaded with Kctd7 piRNA (30 nt)
Experiment: pre-steady-state target cleavage rate (min^-1); MIWI and MILI are mouse PIWI proteins and EfPiwi is from a freshwater sponge; tags in brackets are library labels; higher = faster piRNA-guided slicing of the target
Settings: guide: Kctd7 piRNA 5'p-UGUUAAUCUCUCAGAGAAGGUGACAGUGAU; auxiliary factor: 500 nM mouse GTSF1
Summary of the method: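 Cleave-'n-Seq used a transcribed, DNA-blocked target RNA library at 0.1 nM and active affinity-purified piRISC with one synthetic guide at 1 nM, with or without 500 nM GTSF1 partner protein, in HEPES–potassium acetate buffer at 33 °C for 0–8 or 0–960 min. Uncleaved targets were sequenced and normalised to depth and to weakly complementary targets, and three trials were pooled with k3 capped at 0.0001 min^-1. The pre-steady-state cleavage rate was estimated by a burst-and-steady-state fit.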

Sequence	pre-steady-state target cleavage rate
UACACUGUCACCUUCUCUGAGAGAAUAUGA	0.0476 ± 0.02
UAGUGACAGUGGAACUCUGAGAGAUUAAAA	< 0.0001
AUCACUGCUCACCUUCUCUGAGAGAUUAACA	0.8 ± 0.051
UAGUGACACACGUACUCUGAGAGAUUAACA	0.00451 ± 0.0022
UAGUGAGUCACCUUCUCUGAGAGAUUAAAA	0.251 ± 0.035
UAGUGACAGUCCUUCUCUGAGAGAUUCACA	0.0181 ± 0.0039
UAGUGUCUCACCUUCUCUGUGAGAUUAACA	0.0642 ± 0.0069
UAGUGAGUCACCUUGUCUGAGAGAUUAUCA	0.0491 ± 0.014
UAGUGACUCUCCUUCUCUGUGAGAUUAACA	0.018 ± 0.0033
UUCACUGUCACCUAGUCUGAGAGAUUAACA	0.575 ± 0.027
UAGACCGUCACCUUCUCUGAGAGAUUAACA	0.597 ± 0.031
UUCACUGUCAGGAUCUCUGAGAGAUUAACA	0.205 ± 0.025
AUCACUGUCACCUUCUCUGAGAGAUUAUGA	0.104 ± 0.02
UAGUGACAGACGUUCUCUGUGAGAUUAACA	0.00632 ± 0.0029
UAGUCAGUCACCUUCUCUGAGAGAAUAACA	0.494 ± 0.084
UAGUGUGUCACCUUCUCAGAGUGAUUAACA	0.0242 ± 0.0077
UAGACUGUGACCUUCUCUGAGAGAUUUUGA	0.00978 ± 0.0037
UACACUGUCACCAUCUCUGUGAGAUUAACA	0.188 ± 0.015
UAGUGACACAGCUUGUCUGAGAGAUUAACA	0.0643 ± 0.01
UAGUGACUCACCUACUCUGAGACAUUAACA	0.0336 ± 0.0048
UAGUCUGUCACGAUCUCUGAGAGAUUAACA	0.485 ± 0.029
UAGUGACUCUCCUUCACUGAGAGAUUAACA	0.069 ± 0.01
AUCACUGUCACCAUCUCUGAGACAUUAACA	0.0987 ± 0.015
UAGUGUGUCACCUUCUCUGAGAGAUUAACC [g2:g25:cont:t1C]	0.367 ± 0.029

Sequence	pre-steady-state target cleavage rate
AACACUGUCACCUUCUCUGAGACAUUAACA	0.158 ± 0.012
UAGUGACAGUGCUACUCUGAGAGAUUAUCA	< 0.0001
AUGUCUGUCACCUUCUCUGAGAGAUUAACA	0.604 ± 0.024
UAGACUGUCACGUUCUCUCAGAGAUUAACA	0.0604 ± 0.0045
UAGUGACAGACCUUCUCUGAGAGAUUAUCA	0.0948 ± 0.017
UACACUGUCACCUACUCUCAGAGAUUAACA	0.061 ± 0.011
AUCACUGUCACCUUCUCAGAGAGAUUAUCA	0.176 ± 0.027
UUCACUGUCACCUACUGUGAGAGAUUAACA	0.359 ± 0.023
UAGUGUGACAGCUUCUCUGAGAGAUUAACA	0.265 ± 0.021
UAGUGACAGUGGAAGUCUGAGUGAUUAACA	< 0.0001
UAGACUGUCACCUUCUCUCAGACAUUAACA	0.0524 ± 0.0048
UAGUGACUCACCUUGUCUGAGAGAUUUACA	0.0403 ± 0.014
UAGUGACAGUGCUACUCUGAGAGUUUAACA	< 0.0001
UAGACUGUCACCUUCUCUGAGAGCAUUAACA	0.38 ± 0.025
UAGUGACUCACCUUCUCUGAGAGCAUUAACA	0.297 ± 0.034
UUCACUGUCACCUUCAGAGAGAGAUUAACA	0.0704 ± 0.028
UAGUGUGUCUCCUUCUCUGAGAGAUUUUGA	0.0152 ± 0.0044
AUCACUGUCAUCCUUCUCUGAGAGAUUAACA	0.354 ± 0.025
UAGUGACAGACCUUCUCUGAGAGAUUGACA	0.101 ± 0.016
UAGACUCUCACCUUCACUGAGAGAUUAACA	0.279 ± 0.02
AUCACUGACACCUUCUGUGAGAGAUUAACA	0.443 ± 0.018
UAGACUGUCACCUUCUCUGAGAGAUUAACU [g2:g27:cont:t1U]	0.433 ± 0.054
UUCACUGUCACCUUCUCUGACAGAAUAACA	0.0224 ± 0.0065
UAGACUGACACCUUCUCAGAGAGAUUAACA	0.219 ± 0.014

Sequence	pre-steady-state target cleavage rate
UAGACUGUCAUCUUCUCUGAGAGAUUAACA	0.848 ± 0.051
UUCACUGUCACCUUCUCUGAGUGAUUUACA	0.0357 ± 0.0069
UUCACUGUCACCUUCUCUGAGAGUAUAAGA	0.0364 ± 0.013
AUCACUGUCACCUUCUCAGAGAGAUUAACA	0.457 ± 0.032
UUCACAGUCAGCUUCUCUGAGAGAUUAACA	0.692 ± 0.027
AUCACUGUCACGUUCUCUGAGAGAUUAUGA	0.0579 ± 0.013
UACACUGUCACCCUUCUCUGAGAGAUUAACA	0.428 ± 0.031
AUCACUGUCACCUUCUCAGAGAGUUUAACA	0.371 ± 0.076
UAGUGACAGUCUUUCUCUGAGAGAUUAACA	0.0601 ± 0.0069
AAGUCUGUCACCUUCUCUGAGAGAUUUUGA	0.0455 ± 0.013
UACACUGUCACCUUCUCUGAGUCUUUAACA	0.0259 ± 0.0095
UAGUGAGUCACCUUCUCUGAGAGACUAACA	0.22 ± 0.025
UAGACUGUCUCCUUCUCUGUGAGAUUAACA	0.218 ± 0.014
UAGUCUGUGACCUUCUCUGAGAGAUUUACA	0.243 ± 0.031
UUCACUGUCACCUUCUCUGUGAGAUAUUGA	0.0105 ± 0.0045
UAGUGAGUCACCUUCUCGGAGAGAUUAACA	0.218 ± 0.017
AUCACUGUCACCUACUGUGAGAGAUUAACA	0.464 ± 0.026
UAGUGAGUCACCUUCUCUGAGAGAGUAACA	0.368 ± 0.059
UAGUCUGUCACCUUCUCUGAGAGAAUUAACA	0.57 ± 0.1
UUCACUCUGACCUUCUCUGAGAGAUUAACA	0.455 ± 0.025
UUCAGUGUCACCUUCUCUGAGAGAUUAUGA	0.0602 ± 0.014
UUCACUGUCACCUUCACUGAGAGAUAAACA	0.247 ± 0.029
UAGUGUGUCACCUUCUCUCAGAGAUUAUCA	0.0377 ± 0.011
UUCACUGUCUCCUUCUCUGAGAGAUUAUCA	0.231 ± 0.035
